Reference: PubChem BioAssay AID1476 (National Center for Advancing Translational Sciences (NCATS), 2009)
Out of some 200,000 compounds screened, about 4,500 (2.2%) were called active. The shares of active, inactive and inconclusive entries below differ from those in the screen. The call rests on the fitted dose curve; in most records, active means well fitted inhibition curve with a large enough effect; inconclusive means small, poorly fitted or top-dose-only effect, or effect the other way; inactive means flat fitted curve, though single readings scatter. Where the call is inconclusive, the potency comes from a doubtful curve fit.
Further: nearly all actives have a fitted effect of over 40% in size.
Potency means the concentration at half of the fitted maximal effect; tags describe the fitted curve by direction and shape.
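Wherever max response, negative = inhibition is given: plate controls were enzyme without inhibitor for no effect and buffer without enzyme for full effect.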

These molecules were tested against Cruzipain (Trypanosoma cruzi) (UniProt P25779) (assay: qHTS Assay for Promiscuous and Specific Inhibitors of Cruzain (without detergent)). Conditions: purified cruzain, Z-FR-AMC fluorescence, no detergent.
UniProt P25779, sequence (P25779 whole entry, looked up): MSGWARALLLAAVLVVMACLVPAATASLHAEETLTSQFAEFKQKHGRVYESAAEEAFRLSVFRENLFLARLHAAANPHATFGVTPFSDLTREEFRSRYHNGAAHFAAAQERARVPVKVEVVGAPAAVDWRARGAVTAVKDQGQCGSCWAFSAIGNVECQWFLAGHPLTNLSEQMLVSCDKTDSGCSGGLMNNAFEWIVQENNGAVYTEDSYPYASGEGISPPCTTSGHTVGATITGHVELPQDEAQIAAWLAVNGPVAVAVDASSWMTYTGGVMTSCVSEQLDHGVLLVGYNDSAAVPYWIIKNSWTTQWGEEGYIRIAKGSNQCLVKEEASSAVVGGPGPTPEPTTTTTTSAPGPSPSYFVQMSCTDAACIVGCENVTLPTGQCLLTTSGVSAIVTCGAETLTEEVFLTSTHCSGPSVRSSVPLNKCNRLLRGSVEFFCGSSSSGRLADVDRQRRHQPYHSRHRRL
Method in brief: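 Purified cruzain at 1.5 nM, pre-incubated 15 min with compound at room temperature in 100 mM sodium acetate pH 5.5, 5 mM DTT, 0.00005% Triton X-100. Reaction started with 2 uM Z-FR-AMC; AMC fluorescence increase over 60 s gives rate.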
CN(C)c1ccc(C(CNC(=O)c2ccccc2F)c2c[nH]c3ccccc23)cc1 (stereo not drawn) was tested, and the Potency was inconclusive: 39.8 µM [inhibitor, single point]. For O=C(Nc1cc(-c2nc3cc(Cl)ccc3o2)ccc1Cl)c1cc([N+](=O)[O-])ccc1N1CCOCC1, the max response, negative = inhibition was inactive: -5.69%. For CCOC(=O)c1ccc(NC(=O)CSc2nnc(C)n2-c2ccccc2)cc1, the Potency was inconclusive: 25.1 µM [activator, single point]. In the case of COc1ccc(NC(=O)c2sc3nc4c(c(-c5ccc(OC)cc5)c3c2N)C(=O)CC(C)(C)C4)cc1, the max response, negative = inhibition is reported as inactive: -15.6%. CCOC(=O)c1ccc(N2C(=O)c3[nH]nc(-c4ccc(OCC)cc4)c3C2c2cccs2)cc1 (stereo not drawn) was tested, and the Potency was inconclusive: 39.8 µM [inhibitor, single point]. With Cc1cc2n(n1)CCC(=O)N2Cc1ccc(C(=O)Nc2ccc(F)cc2F)cc1 the max response, negative = inhibition was inactive: 2.64%. With O=C(NCC1CCCO1)C1CCC(=O)N1CCc1ccccc1 (stereo not drawn) the max response, negative = inhibition was inactive: 2.12%. With COCCCNC(=O)C(C#N)c1nc2ccccc2nc1N1CCCC1 (stereo not drawn) the Potency was inconclusive: 39.8 µM [activator, single point]. In the case of COc1ccc(/C=C2/CC/C(=C\c3ccc(OC)c(OC)c3OC)C2=O)c(OC)c1OC, the Potency is reported as inconclusive: 31.6 µM [activator, single point]. With COc1ccc2[nH]cc(CCNc3ncnc4ccc(-c5cccnc5)cc34)c2c1 the max response, negative = inhibition was inactive: -13.8%. With COc1ccc(OC)c(CCNC(=O)c2cnn(-c3ccc(C)cc3C)c2C2CCN(C(=O)OC(C)(C)C)CC2)c1 the Potency was inconclusive: 39.8 µM [activator, single point]. With Cc1c(C(=O)N2CCC(C)CC2)c(S(=O)(=O)Nc2cccc(C(F)(F)F)c2)c(C)n1C the Potency was inconclusive: 31.6 µM [activator, single point]. For COc1cccc2sc(NNC(=O)c3nc4ccccc4s3)nc12, the Potency was inconclusive: 39.8 µM [inhibitor, single point]. O=C1c2ccccc2NC(c2ccc(-c3cccc([N+](=O)[O-])c3)o2)N1O (stereo not drawn) was tested, and the Potency was inconclusive: 25.1 µM [inhibitor, single point]. In the case of Cc1cc(C)c2cc(CN(CC3CCCO3)S(=O)(=O)c3ccc4c(c3)OCCO4)c(=O)[nH]c2c1 (stereo not drawn), the Potency is reported as inconclusive: 31.6 µM [activator, single point]. With O=C(NC1CCCC1)C(c1ccsc1)N(C(=O)Cc1cccs1)c1ccccc1 (stereo not drawn) the Potency was active: 10 µM. In the case of CCn1nnc2cc(C(=O)Nc3ccc(C)c(Cl)c3)ccc21, the max response, negative = inhibition is reported as inactive: -7.65%. For O=C(N/N=C/c1ccc(-c2cccc(C(F)(F)F)c2)o1)c1ccccc1Br, the max response, negative = inhibition was inactive: 17.8%. In the case of CC1Cc2ccccc2N1S(=O)(=O)c1nnc(NC(=O)c2cccc(F)c2)s1 (stereo not drawn), the max response, negative = inhibition is reported as inactive: -8.39%. CCOc1ccc(-c2nnc(SCC(=O)Nc3ccc(C)cc3Cl)o2)cc1 was tested, and the Potency was inconclusive: 25.1 µM [inhibitor, single point]. With CC(=O)OC[C@@]1(O)C[C@@]23CC[C@@H]4c5ccoc5CC[C@@]4(C)[C@@H]2CCC1C3 the Potency was inconclusive: 39.8 µM [activator, single point]. CCn1nc(-c2ccccc2)c(-c2ccccc2)c(C(=O)Nc2nc(C)c(C(C)=O)s2)c1=O was tested, and the Potency was inconclusive: 39.8 µM [activator, single point]. With Cc1ccc(NC(=O)CS(=O)CC(=O)N(c2ccc(C)cc2)C(C)C(=O)NC2CCCCC2)cc1 (stereo not drawn) the Potency was inconclusive: 31.6 µM [activator, single point]. For CC(=O)Nc1ccc(C(=O)Nc2cc(C(F)(F)F)ccc2-n2cnc3ccccc32)cc1, the Potency was inconclusive: 39.8 µM [activator, single point]. With Cc1ccc(NC(=O)N2CCN(c3ccc(Cl)c(Cl)c3)CC2)cc1 the Potency was inconclusive: 31.6 µM [inhibitor, single point]. In the case of Cn1c(=O)oc2cc(S(=O)(=O)N3CCCC(C(=O)N4CCc5ccccc5C4)C3)ccc21 (stereo not drawn), the Potency is reported as inconclusive: 39.8 µM [activator, single point]. For CC(=O)O[C@]1(C(C)=O)CC[C@H]2C3C=C(Cl)C4=CC(=O)[C@@H]5C[C@H]5[C@]4(C)C3CC[C@@]21C (stereo partly drawn), the Potency was inconclusive: 25.1 µM [activator, single point]. For CC(=O)N1CCc2cc(S(=O)(=O)NC(CC(C)C)C(=O)N3CCn4c3nc3ccccc34)ccc21 (stereo not drawn), the Potency was inconclusive: 31.6 µM [activator, single point]. For Cn1c(SCc2nc3ccccc3s2)nnc1-c1ccc2c(c1)OCO2, the Potency was inconclusive: 39.8 µM [inhibitor, single point]. For Cc1cccc(Cn2c(COc3ccc(Cl)cc3)nc3ccccc32)c1, the max response, negative = inhibition was inactive: -13.3%. In the case of CCN(Cc1ccccc1)C(=O)c1cc2c(=O)[nH]c3ccc(C)cc3c2s1, the max response, negative = inhibition is reported as inactive: -2.1%. For Cc1cc(C)cc(N(C(C)C(=O)NCCC2=CCCCC2)S(C)(=O)=O)c1 (stereo not drawn), the Potency was inconclusive: 25.1 µM [activator, single point]. For Cc1cc(NC(=O)CSc2ccc3nnc(-c4ccc(Cl)cc4)n3n2)no1, the Potency was inconclusive: 20 µM [activator, single point]. In the case of O=S(=O)(c1ccccc1)N1CCC2(CCN(c3cccc(-c4ccccc4)c3)CC2)CC1, the max response, negative = inhibition is reported as inactive: 14.9%. Nc1nonc1-n1nnc(C(=O)N/N=C/c2ccc(Br)cc2)c1CSC1=NCCS1 was tested, and the Potency was inconclusive: 39.8 µM [inhibitor, single point]. COc1ccccc1N1CCN(C(CNC(=O)C(=O)NCc2ccc(F)cc2)c2cccnc2)CC1 (stereo not drawn) was tested, and the Potency was inconclusive: 20 µM [activator, partial curve]. COC(=O)C1=NN(c2ccc(Cl)cc2)C2C(=O)N(c3ccccc3OC)C(=O)C12 (stereo not drawn) was tested, and the Potency was inconclusive: 39.8 µM [activator, single point]. COc1ccc(CNCc2c(C(=O)O)c(C)n(Cc3ccccc3C)c2C)c(OC)c1 was tested, and the max response, negative = inhibition was inactive: -0.789%. For CCN(CC)S(=O)(=O)c1cccc(C(=O)Nc2sc3c(c2C#N)CCC(C)C3)c1 (stereo not drawn), the max response, negative = inhibition was inactive: -1.65%. In the case of COc1ccc(C(=O)Nc2nnc(SCc3cc(=O)n4cccc(C)c4n3)s2)cc1, the max response, negative = inhibition is reported as inactive: 0.371%. In the case of COCCOC(=O)C1=C(C)NC(C)=C(C(=O)OC(C)C)[C@@H]1c1cccc([N+](=O)[O-])c1, the Potency is reported as inconclusive: 39.8 µM [activator, partial curve]. With CCc1ccc(Cn2nnc(C(=O)Nc3ccc(OC)cc3OC)c2N)cc1 the Potency was active: 25.1 µM. For COc1cc(CNc2nc(C)c([N+](=O)[O-])c(C)c2C#N)cc(OC)c1OC, the Potency was inconclusive: 31.6 µM [activator, single point]. CC1CCCCN1S(=O)(=O)c1ccc(S(=O)(=O)N2CCN(c3ccccc3)CC2)cc1 (stereo not drawn) was tested, and the Potency was inconclusive: 39.8 µM [inhibitor, single point]. COc1cc(Cl)c(C)cc1NC(=O)Cn1ncc2c1-c1cc(C)ccc1OC2 was tested, and the max response, negative = inhibition was inactive: -2.71%. For CCCSc1ncc(Cl)c(C(=O)Nc2c(C(=O)Nc3ccc(OC)cc3)oc3ccccc23)n1, the max response, negative = inhibition was inactive: -20.2%. With CCCOc1ccc(CNC(=O)CCCn2nc(C)c3sc4ccccc4c3c2=O)cc1 the Potency was inconclusive: 39.8 µM [activator, single point]. CCc1ccc(C(=O)N2CCC(c3nc(-c4ccc(S(=O)(=O)N5CCCC5)cc4)no3)CC2)cc1 was tested, and the max response, negative = inhibition was inactive: 1.02%. With Cc1ccc(NC(=O)C2CC(=O)N(Cc3ccccc3)C2)cc1S(=O)(=O)N1CCCCCC1 (stereo not drawn) the Potency was inconclusive: 39.8 µM [activator, single point]. O=c1c(C(c2ccccc2)c2c(O)sc3ccccc3c2=O)c(O)sc2ccccc12 was tested, and the Potency was inconclusive: 25.1 µM [inhibitor, single point]. For CCCCS(=O)CC(COc1ccc(Cl)cc1)OC(=O)c1ccccc1 (stereo not drawn), the Potency was inconclusive: 20 µM [activator, partial curve]. For CCOc1ccc(-c2nnc(-c3snc(-c4ccc(F)cc4)c3N=CN(C)C)o2)cc1, the Potency was inconclusive: 39.8 µM [activator, single point]. CCOC(=O)c1cc2sccc2n1CC(=O)N1c2ccccc2CC1C (stereo not drawn) was tested, and the Potency was inconclusive: 39.8 µM [inhibitor, single point]. With Cc1cccc(-n2c(=O)c3ccccc3n(Cc3ccccc3)c2=O)c1 the max response, negative = inhibition was inactive: 10.8%. [N-]=[N+]=NC[C@@H]1O[C@@H](n2cnc3c(N)ncnc32)[C@@H]2O[C@@H]21 was tested, and the max response, negative = inhibition was inactive: 11.2%. With Cc1ccc(CNC(=O)C2CCN(Cc3nc(-c4cccc(Br)c4)oc3C)CC2)cc1 the Potency was inconclusive: 3.98 µM [activator, single point]. In the case of CCCCOC(=O)c1ccc(-c2ccc(/C=N/NC(=S)NCC)o2)cc1, the Potency is reported as active: 25.1 µM. With Cc1ccc(/C=N/NC(=O)CCSc2ccccc2)cc1 the Potency was inconclusive: 39.8 µM [inhibitor, single point]. With O=C(NCc1ccco1)c1ccc2c(c1)N(Cc1c(F)cccc1Cl)C(=O)c1ccccc1S2 the Potency was inconclusive: 31.6 µM [inhibitor, single point]. For COc1ccc(OC)c(NC(=O)c2cc(C3CC3)nc3c2c(C)nn3-c2ccc(C)cc2)c1, the max response, negative = inhibition was inactive: -2.83%. For COC(=O)c1ccc(CS(=O)(=O)c2ccccc2C)o1, the Potency was active: 15.8 µM. For O=C(N/N=C/c1cc2ccccc2nc1Cl)[C@H]1C[C@@H]1c1ccccc1, the Potency was inconclusive: 39.8 µM [inhibitor, single point]. For CCOC(=O)c1cc(-c2ccccc2)sc1NC(=S)Nc1cccc(C)n1, the Potency was inconclusive: 0.0501 µM [activator, full curve, poor fit].
